In all, about 420,000 compounds went through this assay and about 64,000 (15%) were called active. The inconclusive results got no clear call from the source; some entries with a clear call stand among them for comparison. Calls follow the shape of the dose curve; as a rule, active = well fitted inhibition curve with a large enough effect; inconclusive = small, poorly fitted or top-dose-only effect; inactive = flat fitted curve, though single readings scatter. Potencies of inconclusive entries are left out as doubtful fits.
Assay: qHTS for Inhibitors of human tyrosyl-DNA phosphodiesterase 1 (TDP1): qHTS in cells in absence of CPT; also: nearly all actives have a fitted effect of over 55% in size
Conditions: DT40 Tdp1-/- hTDP1 cells, no CPT, ATP luminescence, 48 h; activity change, negative = growth inhibition: at 46.2 µM (top of the series) unless noted
Outline: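 A cellular qHTS used chicken DT40 cells lacking endogenous Tdp1 but carrying stably transfected human TDP1. Compounds were applied without camptothecin, and cell growth kinetics were judged by ATP-dependent luminescence after ≥48 hr.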
% is scaled to controls: 0 for no effect and ±100 for the full control effect; potency is read from the fitted curve at half-maximal effect; tags tell the direction and shape of the fitted curve.

Row | Structure (SMILES) | Potency | activity change, negative = growth inhibition
1 | CC(=O)c1cccc(NC(=O)C(C)OC(=O)c2ccc(S(C)(=O)=O)c([N+](=O)[O-])c2)c1 (stereo unspecified) | active: 3.16 µM | –
2 | C/C(=C\C(=O)c1ccc(C)o1)Nc1ccc2c(c1)OCO2 | inactive | –
3 | Cc1ccc(NC(=O)c2ccc(S(=O)(=O)N(C)c3ccccc3)cc2)cc1S(=O)(=O)N1CCOCC1 | inconclusive [inhibitor, partial curve] | –
4 | CCn1c(Cc2ccc(OC)cc2)nnc1SCC(=O)N1CCN(c2ccccc2)CC1 | inconclusive [inhibitor, single point] | –
5 | Cc1cccc(-n2c(O)c(C=Nc3ccc4c(c3)OCO4)c3ccccc3c2=O)n1 | inconclusive [inhibitor, single point] | –
6 | CC(C)CC(NC(N)=O)C(=O)NCCc1ccc(Cl)cc1Cl (stereo unspecified) | inconclusive [inhibitor, single point] | –
7 | COc1cc(C(=O)Nc2cc(C)nn2-c2ccccc2)cc(OC)c1OC | inconclusive [inhibitor, full curve] | –
8 | COCc1[nH]c(=S)c(C#N)cc1C(=O)OC | inconclusive [inhibitor, single point] | –
9 | Cc1ccccc1-c1nnc(SCC(=O)NC2CCS(=O)(=O)C2)n1C (stereo unspecified) | inactive | –
10 | Brc1ccc(C2Nc3cccc4cccc(c34)N2)o1 | active: 18.4 µM | –
11 | CC(C)(C)c1ccc(OCCn2nc(C(=O)O)c3ccccc3c2=O)cc1 | active: 20.6 µM | –
12 | Cc1ccc(C2C(C#N)=C(N)SC(N)=C2C#N)c(C)c1 | inconclusive [inhibitor, partial curve] | –
13 | Cc1ccc(-n2ncc3c(NC4CCCCC4)ncnc32)cc1C | inconclusive [inhibitor, single point] | –
14 | O=c1cc(-c2ccc(C(F)(F)F)cc2)oc2ccccc12 | inconclusive [inhibitor, single point] | –
15 | CC(=O)Oc1cc2c(cc1OC(C)=O)C(=O)CCCC2 | inactive | –
16 | Oc1ccc(/C=N/Nc2ccc(C(F)(F)F)cn2)cc1O | active: 2.59 µM | –
17 | C/C(=N\NC(=O)c1ccc(Cl)cc1)c1ccc(Br)s1 | active: 10.3 µM | –
18 | CCN(CC(=O)Nc1ccc(NC(C)=O)cc1)C(=O)C1(c2ccc(Cl)cc2)CCC1 | inconclusive [inhibitor, single point] | –
19 | COc1ccc(/C=C/C(=O)N2CCN(c3ccccn3)CC2)cc1OC | – | inconclusive: -30.5% [inhibitor]
20 | CCOc1cc(C(=O)O/N=C(\N)c2ccc([N+](=O)[O-])cc2)cc(OCC)c1OCC | inconclusive [inhibitor, partial curve] | –
21 | O=C(CN1CCCC1)N1CCCc2c1c(=O)oc1ccc(OCc3ccccc3)cc21 | inconclusive [inhibitor, partial curve] | –
22 | CC(C)(C)c1cc(C(=O)N/N=C/c2cc3c(cc2Br)OCO3)n[nH]1 | inconclusive [inhibitor, partial curve] | –
23 | CCn1c(CSCc2ccc(Cl)cc2)n[nH]c1=S | active: 8.2 µM | –

Row | Structure (SMILES) | Potency | activity change, negative = growth inhibition
24 | CC(C)c1c(O)ccc2c1CCC1[C@@](C)(C=O)CCC[C@@]21C (stereo partly specified) | inconclusive [inhibitor, single point] | –
25 | CCNC(=O)CN(c1ccc(Br)c(C)c1)S(C)(=O)=O | inactive | –
26 | CCSc1nnc(-c2ccccc2N=Cc2c(C)[nH]n(-c3ccccc3)c2=O)c(=O)[nH]1 | – | inconclusive: -39.4% [inhibitor]
27 | Cc1cccc(-n2nc3c(c2NC(=O)c2ccc(Br)o2)CSC3)c1 | inconclusive [inhibitor, single point] | –
28 | COc1cc(OC)c(OC)cc1CN1CCCC(C(=O)N2CCCCC2)C1 (stereo unspecified) | inactive | –
29 | Cc1nc2ccccc2cc1C(=O)N/N=C/c1ccccc1[N+](=O)[O-] | inconclusive [inhibitor, single point] | –
30 | Cc1ccccc1-n1nnnc1SCC(=O)N(C)C1CCS(=O)(=O)C1 (stereo unspecified) | inactive | –
31 | CCOC(=O)C1(CCCc2ccccc2)CCN(C(=O)Cn2nc(C)nc2C)CC1 | inconclusive [inhibitor, single point] | –
32 | Cn1c(CSc2nc3ccccc3s2)nnc1SCC(=O)NCc1cccnc1 | inactive | –
33 | Cc1ccc(C)c(-c2nnc(NC(=O)CS(=O)(=O)c3ccccc3)o2)c1 | inconclusive [inhibitor, single point] | –
34 | CC1CCN(S(=O)(=O)c2ccc3c(c2)c(=O)c(C(=O)NCc2cccs2)cn3C)CC1 | inconclusive [inhibitor, single point] | –
35 | COC(=O)c1oc2ccc(Br)cc2c1NC(=O)c1ccccc1 | inconclusive [inhibitor, partial curve] | –
36 | Cc1cc(N(C)C)c(C#N)c(N2CCCCC2)n1 | – | inconclusive: -31.1% [inhibitor]
37 | CCOc1ccc(NC(=O)c2ccc3nc(C(C)C)oc3c2)cc1 | active: 16.4 µM | –
38 | CC(C)OCCCn1c(=S)[nH]c2cc3c(cc2c1=O)OCO3 | inactive | –
39 | COc1ccccc1OC(C)C(=O)N1CCC(c2nc3ccccc3s2)CC1 (stereo unspecified) | inconclusive [inhibitor, partial curve] | –
40 | [S-]C(=Nc1ccc(Cl)cc1)N[n+]1ccccc1 | inconclusive [inhibitor, partial curve] | –
41 | COc1ccccc1NC(=S)N(CCCN1CCOCC1)Cc1cccs1 | inconclusive [inhibitor, single point] | –
42 | O=C(c1cccnc1)N1CCC(Oc2ccc(C(=O)N3CCCCO3)cc2)CC1 | inconclusive [inhibitor, single point] | –
43 | S=c1[nH]nc(-c2cc(-c3ccccc3)n[nH]2)n1/N=C/C=C/c1ccccc1 | inconclusive [inhibitor, partial curve, poor fit] | –
44 | O=C1C(NS(=O)(=O)c2ccc(Br)cc2)=C(N2CCCCC2)C(=O)c2ccccc21 | active: 18.4 µM | –
45 | CC(=O)Nc1ccc2cnn(C(C)=O)c2c1 | inactive | –
46 | Cc1onc(-c2ccccc2)c1C(=O)OCC(=O)N1CCCCC1 | inconclusive [inhibitor, single point] | –

Reference: PubChem BioAssay AID686978 (National Center for Advancing Translational Sciences (NCATS), 2013)
